Among the data in ChEMBL document CHEMBL1154674, “Synthesis and evaluation of three 18F-labeled aminophenylbenzothiazoles as amyloid imaging agents” (J Med Chem, 2009) are SUV values, retold here.

SMILES strings stand for the structures. The source gives many values for each of these; only a part stands here.

Common to all, as to format: ADME, organism-based, Macaca mulatta
Data set [1] is described as follows: Drug level in normal rhesus monkey thalamus assessed as standard uptake value at 81.2 MBq, iv after 14 mins by microPET. The conditions noted are these: in vivo.
Data set [2] can be described thus: Drug level in normal rhesus monkey white matter assessed as standard uptake value at 81.2 MBq, iv after 135 mins by microPET. Particulars: in vivo, 2.25 h.
The nature of data set [3]: Drug level in normal rhesus monkey pons assessed as standard uptake value at 81.2 MBq, iv after 2.5 mins by microPET. Particulars: in vivo.
Data set [4] is described as follows: Drug level in normal rhesus monkey frontal cortex assessed as standard uptake value at 81.2 MBq, iv after 115 mins by microPET. Particulars: in vivo.
Data set [5] is described as follows: Drug level in normal rhesus monkey white matter assessed as standard uptake value at 81.2 MBq, iv after 52.5 mins by microPET. Particulars: in vivo, 0.875 h.
The nature of data set [6]: Drug level in normal rhesus monkey thalamus assessed as standard uptake value at 81.2 MBq, iv after 105 mins by microPET. The conditions noted are these: in vivo, 1.75 h.
Data set [7] is described as follows: Drug level in normal rhesus monkey frontal cortex assessed as standard uptake value at 81.2 MBq, iv after 175 mins by microPET. Particulars: in vivo.
A short description of data set [8]: Drug level in normal rhesus monkey cerebellum assessed as standard uptake value at 81.2 MBq, iv after 75 mins by microPET. The conditions noted are these: in vivo, 1.25 h.
A short description of data set [9]: Drug level in normal rhesus monkey frontal cortex assessed as standard uptake value at 81.2 MBq, iv after 145 mins by microPET. The conditions noted are these: in vivo.
Data set [10] in a line: Drug level in normal rhesus monkey thalamus assessed as standard uptake value at 81.2 MBq, iv after 52.5 mins by microPET. The conditions noted are these: in vivo, 0.875 h.
A short description of data set [11]: Drug level in normal rhesus monkey frontal cortex assessed as standard uptake value at 81.2 MBq, iv after 135 mins by microPET. Particulars: in vivo, 2.25 h.
A short description of data set [12]: Drug level in normal rhesus monkey parietal cortex assessed as standard uptake value at 81.2 MBq, iv after 75 mins by microPET. The conditions noted are these: in vivo, 1.25 h.
Data set [13] is described as follows: Drug level in normal rhesus monkey thalamus assessed as standard uptake value at 81.2 MBq, iv after 65 mins by microPET. The conditions noted are these: in vivo.
The nature of data set [14]: Drug level in normal rhesus monkey cerebellum assessed as standard uptake value at 81.2 MBq, iv after 105 mins by microPET. The conditions noted are these: in vivo, 1.75 h.
Data set [15] is described as follows: Drug level in normal rhesus monkey white matter assessed as standard uptake value at 81.2 MBq, iv after 22.5 mins by microPET. Particulars: in vivo, 0.375 h.
Data set [16] in a line: Drug level in normal rhesus monkey cerebellum assessed as standard uptake value at 81.2 MBq, iv after 1.5 mins by microPET. Particulars: in vivo, 0.025 h.
Data set [17] can be described thus: Drug level in normal rhesus monkey frontal cortex assessed as standard uptake value at 109.4 MBq, iv after 52.5 mins by microPET. The conditions noted are these: in vivo, 0.875 h.
Data set [18] is described as follows: Drug level in normal rhesus monkey cerebellum assessed as standard uptake value at 109.4 MBq, iv after 42.5 mins by microPET. Particulars: in vivo.
Data set [19] in a line: Drug level in normal rhesus monkey pons assessed as standard uptake value at 109.4 MBq, iv after 111 mins by microPET. The conditions noted are these: in vivo.
The nature of data set [20]: Drug level in normal rhesus monkey white matter assessed as standard uptake value at 109.4 MBq, iv after 0.625 mins by microPET. The conditions noted are these: in vivo, 38 s.
A short description of data set [21]: Drug level in normal rhesus monkey cerebellum assessed as standard uptake value at 109.4 MBq, iv after 37.5 mins by microPET. Particulars: in vivo, 0.625 h.
A short description of data set [22]: Drug level in normal rhesus monkey frontal cortex assessed as standard uptake value at 109.4 MBq, iv after 12.5 mins by microPET. The conditions noted are these: in vivo.
A short description of data set [23]: Drug level in normal rhesus monkey cerebellum assessed as standard uptake value at 109.4 MBq, iv after 87 mins by microPET. Particulars: in vivo, 1.45 h.
Data set [24] can be described thus: Drug level in normal rhesus monkey frontal cortex assessed as standard uptake value at 109.4 MBq, iv after 87 mins by microPET. The conditions noted are these: in vivo, 1.45 h.
A short description of data set [25]: Drug level in normal rhesus monkey frontal cortex assessed as standard uptake value at 109.4 MBq, iv after 75 mins by microPET. Particulars: in vivo, 1.25 h.
Data set [26] is described as follows: Drug level in normal rhesus monkey thalamus assessed as standard uptake value at 109.4 MBq, iv after 75 mins by microPET. Particulars: in vivo, 1.25 h.
A short description of data set [27]: Drug level in normal rhesus monkey pons assessed as standard uptake value at 96.3 MBq, iv after 165 mins by microPET. The conditions noted are these: in vivo, 2.75 h.
Data set [28] in a line: Drug level in normal rhesus monkey frontal cortex assessed as standard uptake value at 96.3 MBq, iv after 155 mins by microPET. The conditions noted are these: in vivo.
A short description of data set [29]: Drug level in normal rhesus monkey parietal cortex assessed as standard uptake value at 96.3 MBq, iv after 12 mins by microPET. The conditions noted are these: in vivo, 0.2 h.
The nature of data set [30]: Drug level in normal rhesus monkey thalamus assessed as standard uptake value at 96.3 MBq, iv after 145 mins by microPET. The conditions noted are these: in vivo.
Data set [31] is described as follows: Drug level in normal rhesus monkey cerebellum assessed as standard uptake value at 96.3 MBq, iv after 8 mins by microPET. The conditions noted are these: in vivo.
Data set [32] in a line: Drug level in normal rhesus monkey cerebellum assessed as standard uptake value at 96.3 MBq, iv after 3.5 mins by microPET. The conditions noted are these: in vivo.
A short description of data set [33]: Drug level in normal rhesus monkey thalamus assessed as standard uptake value at 96.3 MBq, iv after 125 mins by microPET. The conditions noted are these: in vivo.
Data set [34] can be described thus: Drug level in normal rhesus monkey cerebellum assessed as standard uptake value at 96.3 MBq, iv after 175 mins by microPET. The conditions noted are these: in vivo.
Data set [35] is described as follows: Drug level in normal rhesus monkey white matter assessed as standard uptake value at 96.3 MBq, iv after 65 mins by microPET. The conditions noted are these: in vivo.
Data set [36] is described as follows: Drug level in normal rhesus monkey frontal cortex assessed as standard uptake value at 96.3 MBq, iv after 22.5 mins by microPET. The conditions noted are these: in vivo, 0.375 h.
Data set [37] is described as follows: Drug level in normal rhesus monkey parietal cortex assessed as standard uptake value at 96.3 MBq, iv after 135 mins by microPET. The conditions noted are these: in vivo, 2.25 h.
Data set [38] is described as follows: Drug level in normal rhesus monkey white matter assessed as standard uptake value at 96.3 MBq, iv after 125 mins by microPET. The conditions noted are these: in vivo.
Data set [39] can be described thus: Drug level in normal rhesus monkey white matter assessed as standard uptake value at 96.3 MBq, iv after 85 mins by microPET. The conditions noted are these: in vivo.
The nature of data set [40]: Drug level in normal rhesus monkey thalamus assessed as standard uptake value at 96.3 MBq, iv after 6 mins by microPET. Particulars: in vivo, 0.1 h.
Data set [41] in a line: Drug level in normal rhesus monkey white matter assessed as standard uptake value at 96.3 MBq, iv after 105 mins by microPET. The conditions noted are these: in vivo, 1.75 h.
The nature of data set [42]: Drug level in normal rhesus monkey white matter assessed as standard uptake value at 96.3 MBq, iv after 1.5 mins by microPET. Particulars: in vivo, 0.025 h.
Data set [43] can be described thus: Drug level in normal rhesus monkey cerebellum assessed as standard uptake value at 96.3 MBq, iv after 27.5 mins by microPET. The conditions noted are these: in vivo.
Data set [44] in a line: Drug level in normal rhesus monkey pons assessed as standard uptake value at 96.3 MBq, iv after 14 mins by microPET. Particulars: in vivo.

For `CNc1ccc2nc(-c3ccc([18F])cc3)sc2c1`, the SUV in [1] is reported as 4.764; in data set [2], 4.079; in [3], 4.23; in data set [4], 4.66; in data set [5] it was 3.717; in [6] it was 5.136. The SUV in data set [7] is given as 4.233; in [8], 1.924; in data set [9], 4.488; in data set [10], 5.584; in data set [11] it was 4.473; in data set [12] it was 3.109. For the same compound, the SUV in data set [13] was 5.637; in data set [14], 1.863; in data set [15], 3.763; in data set [16], 1.669.
As to `Nc1ccc2nc(-c3ccc([18F])cc3)sc2c1`, the SUV stood at 4.72 in [17]; 3.59 in [18]; 4.84 in [19]; 0.57 in data set [20]; 3.77 in data set [21]; 5.29 in [22]. For the same compound, the SUV came to 2.72 in data set [23], 4.32 in [24], 4.56 in data set [25] and 5.16 in [26].
`CN(C)c1ccc2nc(-c3ccc([18F])cc3)sc2c1`: the SUV in [27] was found to be 1.91; in data set [28] it was 1.52; in data set [29], 2.21; in data set [30], 1.88; in data set [31], 1.64; in data set [32], 1.55. For the same compound, the SUV in data set [33] was found to be 1.99; in data set [34] it was 0.77; in data set [35], 1.44; in data set [36] it was 2.09; in data set [37] it was 1.27; in data set [38] it was 1.51. Also, the SUV is given as 1.5 in [39]; 1.95 in data set [40]; 1.56 in data set [41]; 0.79 in data set [42]; 1.47 in data set [43]; 1.52 in data set [44].
